According to the RNAGym collection of RNA variant scans (doi:10.1093/nar/gkz1192):
The source gives no read counts; variants with many changes may rest on few reads.

B1: CPEB3 Ribozyme (parent)
chain: UAACAGGGGGCCACAGCAGAAGCGUUCACGUCGCAGCCCCUGUCAGAUUCUGGUGAAUCUGCGAAUUCUGCUGUAUAUCUC

Variants of: B1
Assay: self-cleavage, relative activity (ratio to wild type); higher = more cleavage; in vitro, sequencing
Outline: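 Relative activity was defined as the cleaved/total read fraction for a variant divided by the same fraction for the unmutated ribozyme. CPEB3 self-cleaving ribozyme libraries were made by rounds of error-prone PCR, barcoded, and transcribed in vitro with T7 RNA polymerase for 5 hours at 37°C, and cleavage ran through transcription plus a 15 min DNase I step before EDTA. Illumina sequencing of template-switched reverse transcripts gave the reads, and DNA sequencing mapped the barcodes. Averages come from three batches, using variants with at least 5 reads.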

Q: Which self-cleavage does the source give for UAACAGGGGGCCACAGCUGAAGCCUUCACGUCGCAGUCCCCGUCAGAUUCUGGUGAAUCUGCGAAUUCUGCUGUAUACCUC [A18U G24C C37U U41C U78C] here?
A: 0.07

Q: With UAACAGGGGGCCACAGCUGAAGCUUUCACGUCGCAGUCCCCGUCAGAUUCUGGUGAAUCUGCGAAUUCUGCUGUAUAUCUC [A18U G24U C37U U41C] as the variant, how does the self-cleavage read?
A: 0.16

Q: Which self-cleavage does the source give for UAACAGGGGGCCACAGCUGAAGCUUUCACGUCGCAGUCCCCGUCAGAUUCUGGUGAAUCAGCGAAUUCUGCUGUAUAUCUC [A18U G24U C37U U41C U60A] here?
A: 0.18

Q: With UAACAGGGGGCCACAGCUGAAGCUUUCACGUCGCAGCCCCUGUCAGAUUCUGGUGAAUCUGCGAAUACUGCUGUAUAUCUC [A18U G24U U67A] as the variant, how does the self-cleavage read?
A: 0.16

Q: Which self-cleavage does the source give for UAACAGGGGGCCACAGCUGAAGCGUUCACAUCGCAUCCCCUGUCAGAUUCUGGUGAAUCUGCGAAUUCUGCUGUAUAUGUC [A18U G30A G36U C79G] here?
A: 0.1

Q: With UAACAGGGGGCCACAGCUGAAGCGUUCACAACGCAGCCCCUGUCAGAUUCUGGCGAAUCUGCGAAUUCAGCUGUAUAUCUC [A18U G30A U31A U54C U69A] as the variant, how does the self-cleavage read?
A: 0.11

Q: Which self-cleavage does the source give for UAACAGGGGGCCACAGCUGAAGCGUUCACAUCGCAGCCCCCGUCAGAUUCUGGUGAAUCUGCGAAUUCUGCUGUAUAUCUC [A18U G30A U41C] here?
A: 0.08

Q: Which self-cleavage does the source give for UAACAGGGGGCCACAGCUGAAGCGUUCACCUCGCAGCCCCUGUCAGAUUCUGGUGGAUCUGCGAAUUCCGCUGUAUAUCUC [A18U G30C A56G U69C] here?
A: 0.07

Q: Which self-cleavage does the source give for UAACAGGGGGCCACAGCUGAAGCGUUCACUUCGCUGCCCCUGACGGAUUCUGGUGAAUCAGCGAAUUCUGCUGUAUACCUC [A18U G30U A35U U43A A45G U60A U78C] here?
A: 0.04

Q: With UAACAGGGGGCCACAGCUGAAGCGUUCACUUCGCAGCCCCUGUCAGAUUCUGGUGAAUCUGCGAAUUCAGCUGUAUAUCUC [A18U G30U U69A] as the variant, how does the self-cleavage read?
A: 0.12

Q: For UAACAGGGGGCCACAGCUGAAGCGUUCACUUCGCAGCCCCUGUCAGAUUCUGGUGAAUCUGCGAAUUCUGCUGUAUACCUC [A18U G30U U78C], which self-cleavage is on record?
A: 0.17

Q: Which self-cleavage does the source give for UAACAGGGGGCCACAGCUGAAGCGUUCACGUCACGGCCCCUGUCAGAUUCUGGUGAAUCUGCGUAUUCUGCUGUGUAACUC [A18U G33A A35G A64U A75G U78A] here?
A: 0.05

Q: For UAACAGGGGGCCACAGCUGAAGCGUUCACGUCACAGCCCCUGUCAGCUUCUGGUGAAUCUGCGAAUUCUGCUGUAUAUCCC [A18U G33A A47C U80C], which self-cleavage is on record?
A: 0.2

Q: For UAACAGGGGGCCACAGCUGAAGCGUUCACGUCACAGCCCCUGUCAGAUUCUGGUGAAUCUGCGAGUUCUGCUGUAUAUCCC [A18U G33A A65G U80C], which self-cleavage is on record?
A: 0.17

Q: For UAACAGGGGGCCACAGCUGAAGCGUUCACGUCACAGCCCUUGUCAGAUUCUGGUGAACCUGCGAAUUCUGCUGUAUAUCUC [A18U G33A C40U U58C], which self-cleavage is on record?
A: 0.19

Q: For UAACAGGGGGCCACAGCUGAAGCGUUCACGUCACAGCCCCUGUCAGAUUCCGGUGAAUCUGCGAAUUCUGCUGUAUAUCUC [A18U G33A U51C], which self-cleavage is on record?
A: 0.1

Q: Which self-cleavage does the source give for UAACAGGGGGCCACAGCUGAAGCGUUCACGUCACAGCCCCUGUCAGAUUCUGGUGAAUCCGCGAAUUCUGCUGUAUAUCUC [A18U G33A U60C] here?
A: 0.08

Q: Which self-cleavage does the source give for UAACAGGGGGCCACAGCUGAAGCGUUCACGUCCCAGCCCCUGACGGAUUCUGGUGAAUUUGAGAAUUCUGCUGUAUAUCUC [A18U G33C U43A A45G C59U C62A] here?
A: 0.05

Q: With UAACAGGGGGCCACAGCUGAAGCGUUCACGUCCCAGCCCCUGACAGAUUCUGGUGAAUCUGCGAAUUCCGCUGUAUAUCUC [A18U G33C U43A U69C] as the variant, how does the self-cleavage read?
A: 0.08

Q: Which self-cleavage does the source give for UAACAGGGGGCCACAGCUGAAGCGUUCACGUCCCAGCCCCUGCCAGAUCCUGGGGGAUCUGCGAAUUCUGCUGUAUAUCUC [A18U G33C U43C U49C U54G A56G] here?
A: 0.06

Q: Which self-cleavage does the source give for UAACAGGGGGCCACAGCUGAAGCGUUCACGUCCCAGCCCCUGUCAGAUUCUGGUGAAUCCGCGAAUUCUGCUGUAUAUCUC [A18U G33C U60C] here?
A: 0.14

Q: With UAACAGGGGGCCACAGCUGAAGCGUUCACGUCUCAGCCCCUGUCAGAUUCUGGCGAAUCUGCGAAUUCUGCUGUAUUUCCC [A18U G33U U54C A77U U80C] as the variant, how does the self-cleavage read?
A: 0.1

Q: With UAACAGGGGGCCACAGCUGAAGCGUUCACGUCUCAGCCCCUGUCAGAUUCUGGCGAAUCUGCGAAUACAGCUGUAUAUCUC [A18U G33U U54C U67A U69A] as the variant, how does the self-cleavage read?
A: 0.07

Q: With UAACAGGGGGCCACAGCUGAAGCGUUCACGUCUCAGCCCCUGUCAGAUUCUGGUGAAUCUGCGAAUCCUGCUGUAUAUCUC [A18U G33U U67C] as the variant, how does the self-cleavage read?
A: 0.12

Q: With UAACAGGGGGCCACAGCUGAAGCGUUCACGUCGCAACCCCUGUCAGAUUCUGGUGGAUCCGCGAAUUCUGCUGUAUAUCUC [A18U G36A A56G U60C] as the variant, how does the self-cleavage read?
A: 0.08

Q: Which self-cleavage does the source give for UAACAGGGGGCCACAGCUGAAGCGUUCACGUCGCAACCCCUGUCAGACUCUGGUGAAUCUGCGAAUUCUGCUGUAUAUCUC [A18U G36A U48C] here?
A: 0.16

Q: For UAACAGGGGGCCACAGCUGAAGCGUUCACGUCGCAACCCCUGUCAGACUCUGGUGAAUCUGCGUAUUCUGCUGUAUAUCUC [A18U G36A U48C A64U], which self-cleavage is on record?
A: 0.16

Q: With UAACAGGGGGCCACAGCUGAAGCGUUCACGUCGCAUCCCCUGUCAGAUUCUGGAGAUUCCGCGAACUCUGCUGUAUAUCUC [A18U G36U U54A A57U U60C U66C] as the variant, how does the self-cleavage read?
A: 0.05

Q: With UAACAGGGGGCCACAGCUGAAGCGUUCACGUCGCAGCCCCUAUCAGAUUCUGGUGAACCUGCGAAUUCUGCUGUGUGUCUC [A18U G42A U58C A75G A77G] as the variant, how does the self-cleavage read?
A: 0.37

Q: Which self-cleavage does the source give for UAACAGGGGGCCACAGCUGAAGCGUUCACGUCGCAGCCCCUGUCACAUUCUGGUGAAACUGCGAAUUCUGCGGUAUAUCUC [A18U G46C U58A U72G] here?
A: 0.02

Q: Which self-cleavage does the source give for UAACAGGGGGCCACAGCUGAAGCGUUCACGUCGCAGCCCCUGUCAGAUUCUGGUUAAUCUGCGAAUUCUGCUGUGUAUCUC [A18U G55U A75G] here?
A: 0.41

Q: Which self-cleavage does the source give for UAACAGGGGGCCACAGCUGAAGCGUUCACGUCGCAGCCCCUGUCAGAUUCUGGUUAAACUGCGAAUUCUGCCGUAUAUCUC [A18U G55U U58A U72C] here?
A: 0.15

Q: Which self-cleavage does the source give for UAACAGGGGGCCACAGCUGAAGCGUUCACGUCGCAGCCCCUGUCAGAUUCUGGUUAAUCUGCGAAUUCUGCUGUAUAUCCC [A18U G55U U80C] here?
A: 0.37

Q: With UAACAGGGGGCCACAGCUGAAGCGUUCACGUCGCAGCCCCUGUCAGAUUCUGGUGAAUCUGCAAGUUCCGCUGUAUUUCUC [A18U G63A A65G U69C A77U] as the variant, how does the self-cleavage read?
A: 0.16
